# Source: paper PMC12136788
# This is one part of the list.
# T1: UNK ZnF1-3 (human, UniProt Q9C0B0 31-174)
# T1 sequence: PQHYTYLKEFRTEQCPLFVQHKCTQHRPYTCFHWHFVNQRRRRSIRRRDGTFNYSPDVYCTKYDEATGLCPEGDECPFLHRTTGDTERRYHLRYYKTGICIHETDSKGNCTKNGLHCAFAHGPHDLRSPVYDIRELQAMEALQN
# B1: chr1:145602572:145602573:-_ENSMUSG00000018199_ENSMUST00000159879|mus_mus|motif|central (ssRNA)
# RNA: GGGAGUUCUACAGUCCGACGAUCCUGUUCAAGGCCAGCCUGGUCUACACAGUGAGCUCUAGAAUAGCCAGGACUAUGUCGGUGGAGAGAGACCCUGUCACAAAACAAAACAAAACAAAACAAAAUAACCAUCACACACACAUCCAACAGAGGAUUGAGCAUCA
# B2: chr16:44739181:44739182:-_ENSMUSG00000022668_ENSMUST00000162512|mus_hu|motif|central (ssRNA)
# RNA: GGGAGUUCUACAGUCCGACGAUCAACAGGUUUUCAUUUUAUGGAUGUGCUCUUGUCAGUUUGUUAAAAUAGGGGAAUCAGCGGGUAGCUGUUCUAAUGAACACCAUAAUUCAAUAACUUACAAACUUUUUUCACCUCAGGCACCAACAGAGGAUUGAGCAUCA
# B3: chr5:23655024:23655025:+_ENSMUSG00000028986_ENSMUST00000030841|mus_hu|FALSE|FALSE (ssRNA)
# RNA: GGGAGUUCUACAGUCCGACGAUCAUUAUAGCAGUCCAUUCGCUUUAUUGGGAAAAGCUGAGAGCCUCCCAAAAUGUAUACUACAUUGUCCCAAAACACGCAUGCUGCAUCUCUUCGUUUUUCAAAGGGGCAGCGGAUGUCUGUCAACAGAGGAUUGAGCAUCA
# B4: 79657428_79657548_2643_3pUTR_ENSMUSG00000089715_ENSMUST00000109627|mouse|control|control (ssRNA)
# RNA: GGGAGUUCUACAGUCCGACGAUCCAGUACCACAUCUGCAGUGAAGAUCUGACCUUCAAGAUGACCAUCCCAAGAAGGGCCUGAGGUGGCUCCACGUCCCCCAGCAACCUGGGAUCAGAGUGGCCUGUGGCUUCCACGACAAACCAACAGAGGAUUGAGCAUCA
# B5: 50296631_50299613_2368_3pUTR_ENSMUSG00000043531_ENSMUST00000164039|mouse|control|control (ssRNA)
# RNA: GGGAGUUCUACAGUCCGACGAUCUCUGUCCCAAGCUGCAGUCUUUUGACAGUGAGGAUGGGUUGAACCAAAAUGCUGGCAGGCAUUGUCCAUUACUAUGUCUCUCAUAGCCAUAGUCACAGUCAAAGUCUGCCUCUGUACAAACAACAGAGGAUUGAGCAUCA
# B6: chr6:41757443:41757444:+_ENSG00000214736_ENST00000398881|hu_mus|hu_hu_hu_mus_False|28_78 (ssRNA)
# RNA: GGGAGUUCUACAGUCCGACGAUCGAACCGUGCAGAGGCAACAUCUCAGCCGACACUGUGGACUCAAGGGGCAGUGGGGGGGGGUUCAGGCAAGGAGAGGGAGUCAACCCAUCUGAACACUCAGGUAGGAUCUUGUGGUCACAGCAACAGAGGAUUGAGCAUCA
# B7: chr1:63100574:63100575:-_ENSG00000116641_ENST00000251157|hu_mus|FALSE|FALSE (ssRNA)
# RNA: GGGAGUUCUACAGUCCGACGAUCAGCAGGGGGCACAUGCGGUCGUAACAGUCCCUUCAUCUGCUCUGAAUUAAGGUCGAAAUAAAAAUUCUCGGAAAUCUUUUUCUUCUCCUUGACAUCAUAUAAAGCCAAACUUGCAAAAAUCAACAGAGGAUUGAGCAUCA
# B8: chr18:10010065:10010066:-_ENSMUSG00000047879_ENSMUST00000092096|mus_mus|FALSE|FALSE (ssRNA)
# RNA: GGGAGUUCUACAGUCCGACGAUCCAGAAUAAUAGGUGGGAUACUAGAAGAAGUUUUAUCCAUGGAAUCAAACAAAUCUCUAAGAGCUGCAGUAAUAUACUGUGCUGAAGCCAUUUCUCCUGAAGCUCUCAACGCACCUGCAUACAACAGAGGAUUGAGCAUCA
# B9: chr17:71578653:71578654:+_ENSMUSG00000024052_ENSMUST00000129635|mus_mus|motif|central (ssRNA)
# RNA: GGGAGUUCUACAGUCCGACGAUCAGAUCCUCUUGCUGCCUGGGCUCUCUUCUCAUCAUCUGAGCUCACACCCACAUCACCGGCAUCUUCUGCAACAGGGGAAGCUGCCUGCUCCUCCUUCCUAUUGUCCUGUUUGCACUUCUUCAACAGAGGAUUGAGCAUCA
# B10: chr12:27888400:27888401:+_ENSG00000061794_ENST00000081029|hu_mus|FALSE|FALSE (ssRNA)
# RNA: GGGAGUUCUACAGUCCGACGAUCGGCCUUGCAGUACCGCUCUCCUACAAGCUUAAUGAGUUUUUUCUUGGCAUGAUUGUCUAAAUUCAAACUGGAAAGUUUAACCCUUAACGUUACGGCUCGGGCUUUGGGGUUUCGAAUAGACAACAGAGGAUUGAGCAUCA
# B11: chr7:74146866:74146867:+_ENSG00000077809_ENST00000416070|hu_mus|motif|central (ssRNA)
# RNA: GGGAGUUCUACAGUCCGACGAUCUUCCUUCGCCAGCAAUAUCCUCUCAAGGCGAGGAAUGCCGUACGUCGACGGCCUUCGGAAAGGAAUCCCUUCAGGAAGCCCUUCUACGUAAAGAUCUUCAACAUGGGACUGGAAAAGAGGCAACAGAGGAUUGAGCAUCA
# B12: 88515521_88517607_392_CDS_ENSMUSG00000034111_ENSMUST00000037418|mouse|control|control (ssRNA)
# RNA: GGGAGUUCUACAGUCCGACGAUCUUCCAAGUCCGCUGAAAGAACAUCUAUAGCCCCAGUGUGCUCAGACUGGAUCAUAACUGUGUCCUCAGGUCGCUGUGGAGCUUGGUACUUGGCCAUCUCACUGAGAACCUGGGUCUGGCCCAACAGAGGAUUGAGCAUCA
# B13: chr11:51414962:51414963:-_ENSMUSG00000020358_ENSMUST00000074669|mus_hu|motif|central (ssRNA)
# RNA: GGGAGUUCUACAGUCCGACGAUCGUAUGGCUUGUAGUUAUUCUGAUGGCCACCACGUCGCUGGCUCUUGCCGUAGUUUGUACGGCCCUGACUGUAGUCGUAGCCGGGGCCGUAGCCGUAAUAGCCAUAGGGCGAGUAGUCGUACAACAGAGGAUUGAGCAUCA
# B14: chr11:94812113:94812114:+_ENSMUSG00000001506_ENSMUST00000001547|mus_mus|FALSE|FALSE (ssRNA)
# RNA: GGGAGUUCUACAGUCCGACGAUCCUUUUCCUUGGGGUUCGGGCUGAUGUACCAGUUCUUCUGAGGCACAGACGGCUGAGUAGGGAACACACAGGUCUGACCUGUCUCCAUGUUGCAGUAGACCUUGAUGGCGUCCAGGUUGCACAACAGAGGAUUGAGCAUCA
# B15: 82450353_82451020_3594_CDS_ENSG00000117114_ENST00000319517|human|control|control (ssRNA)
# RNA: GGGAGUUCUACAGUCCGACGAUCGCUAUUGAUGUCACCUGAGAUAAAAGAAGAUUCUGAUUGUUUUCUCACAGUAUCAUUCCACAUUCUUCUUAUACGACUCUGUGUGCCAGAGGAAUAGCGAGCACUGGUUCUGGUGGUUGACAACAGAGGAUUGAGCAUCA
# B16: chr5:139930402:139930403:-_ENSG00000213523_ENST00000336283|hu_hu|FALSE|FALSE (ssRNA)
# RNA: GGGAGUUCUACAGUCCGACGAUCUUCAUUGGCUGCCUCCUCUGAAAACAGACUCCUCUUUUCUGCAAUUAAUCUUUUAACUCCUACCAUCCACUGACUGACCUCAGUCACAUGGUCAACCAUGAGGGAGCGGUGGAUGUCAUCCAACAGAGGAUUGAGCAUCA
# B17: 60514221_60524921_784_CDS_ENSMUSG00000047766_ENSMUST00000114034|mouse|control|control (ssRNA)
# RNA: GGGAGUUCUACAGUCCGACGAUCAUUUUCAAUUUUGGUAAUCUGAUUUCCAUGAAGGUCCAAGACAUCUAAAUUUUUUAGAUUCUCCAGAUUUGAGAUUUUCUUGAUUCUGUUUUUCCCUAACAGGAGGACACGAAGGGAUUUCAACAGAGGAUUGAGCAUCA
# B18: chr2:39052001:39052002:-_ENSMUSG00000026753_ENSMUST00000028087|mus_mus|motif|central (ssRNA)
# RNA: GGGAGUUCUACAGUCCGACGAUCCAACUGGUAUCAAAUCAACACAUCAAUGCUACAAGUAUUAAAUGUUUUUCUAAUACGGUAGAAAUAAAAACAUUAAUAUGGCAGUUAUGUUCUUUAGGCACAAUUUAGUGAUUUUUUUAACAACAGAGGAUUGAGCAUCA
# B19: 58001293_58001413_769_CDS_ENSG00000255529_ENST00000299638|human|control|control (ssRNA)
# RNA: GGGAGUUCUACAGUCCGACGAUCACCUUGGUCCGCAAUGGUGAUCCUCUGUAACCUGUCAAUAAACAGGUUGUCAAAGCUGCUGGAAGUAUCUUCCGCUUGACUUGAAACACGAUGCCGCGGGUGAUGCUCACUAGCUUCAGACAACAGAGGAUUGAGCAUCA
# B20: chr1:93831146:93831147:+_ENSG00000117505_ENST00000370272|hu_hu|FALSE|FALSE (ssRNA)
# RNA: GGGAGUUCUACAGUCCGACGAUCUAACAGAGGUUCAGUUUCACAGCCUUUCCCUCAAGUGUCUUAUCCUAAAAGUAAAACCUAGAUGAUCUAAGGUGGUGGUUUUCAACAGGGUGCAAUUUUGCCUCCUAUACUCGCAACACCCAACAGAGGAUUGAGCAUCA
# B21: 10523219_10523560_686_CDS_ENSG00000160049_ENST00000377038|human|control|control (ssRNA)
# RNA: GGGAGUUCUACAGUCCGACGAUCACCCGUGUCUACUGCAUCCACCUCCUCACCAAAGGCAGCUUUGGACUCUUCCUGCUUUGACAAGAGGCUGCCCUCUUUCUCCAAAGCCUGGAGGUACAGCUGCAGGAGCUGCUUGGACUGCAACAGAGGAUUGAGCAUCA
# B22: chr2:238002776:238002777:+_ENSG00000198612_ENST00000392008|hu_hu|motif|central (ssRNA)
# RNA: GGGAGUUCUACAGUCCGACGAUCGAUUGAAGUAUACGCUUGAGAGACCAGGGCAAAGGCGCGUCUCCUUGUUGCAUCUCGGAGUGCUUCCAUAAUUGGCUGGACCGUCUCAGACCACUGGUGAGCGUUGAUGGUUGUAUAGAUCAACAGAGGAUUGAGCAUCA
# Target: T1, UNK ZnF1-3
# Assay: nsRBNS (natural sequence RNA bind-n-seq); RBNS binding buffer (assumed for nsRBNS): 25 mM Tris pH 7.5, 150 mM KCl, 3 mM MgCl2, 0.01% Triton X-100, 500 ug/ml BSA, 20 U/ml SUPERase-In, 4 C; UNK is unkempt and MSI1 is Musashi-1; names of the RNAs are library labels; protein concentration not given here; high values mean tight binding
row,Binder,binding signal [enrichment R]
1,B1,1.84
2,B2,1.4
3,B3,0.536
4,B4,1.19
5,B5,0.839
6,B6,2.27
7,B7,1.2
8,B8,1.28
9,B9,0.873
10,B10,0.803
11,B11,0.638
12,B12,0.814
13,B13,0.43
14,B14,0.823
15,B15,1.67
16,B16,0.679
17,B17,0.663
18,B18,0.527
19,B19,0.483
20,B20,0.846
21,B21,0.578
22,B22,1.1
